This is one part of the list. The list includes weakly bound sequences.

This assay concerns the target T1, MBP-FoxP3dN (UniProt Q99JB6).
T1 sequence: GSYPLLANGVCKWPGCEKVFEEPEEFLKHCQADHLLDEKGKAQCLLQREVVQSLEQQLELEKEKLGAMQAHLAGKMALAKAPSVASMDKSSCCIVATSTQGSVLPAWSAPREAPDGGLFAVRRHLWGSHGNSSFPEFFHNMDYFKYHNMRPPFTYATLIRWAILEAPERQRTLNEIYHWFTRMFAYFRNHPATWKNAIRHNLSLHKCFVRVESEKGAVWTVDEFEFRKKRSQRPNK
The experiment in a line: PD-seq (MBP pull-down with sequencing). Particulars: 20 mM Tris-HCl pH 7.5, 100 mM NaCl, 1.5 mM MgCl2, 0.4 uM protein, 0.1 uM dsDNA library, 30 min, room temperature, amylose pull-down; high values mean tight binding; double strand, one strand shown.
In the case of “GATGATTGTTCTCCCAGCTGATGAATTGAACTTATCGAGTAAACAAATTTTCCTAATCTTTCTGTTCAAGCGCCATCTAC”, the binding signal (RPM ratio (pull-down/input)) stood at 0.427.
In the case of “GATGATTGTTCTCCCAGCTGATGAATTAACTCCTTCGAGTAAACAAATTTTCCTAATCTTTCTGTTCAAGCGCCATCTAC”, the binding signal (RPM ratio (pull-down/input)) turned out to be 0.269.
With “GATGATTGTTCTCCCAGCTGATGAATTGAACAAATCGAGTAAACAAATTTTCCTAATCTTTCTGTTCAAGCGCCATCTAC” the figure was 0.246; with “GATGATTGTTCTCCCAGCTGATGAATTGAGCATATCGAGTAAACAAATTTTCCTAATCTTTCTGTTCAAGCGCCATCTAC”, 2.11; with “GATGATTGTTCTCCCAGCTGATGAATTGGCATGCTCGAGTAAACAAATTTTCCTAATCTTTCTGTTCAAGCGCCATCTAC”, 1.33.
The same measure for “GATGATTGTTCTCCCAGCTGATGAATTCAAGTGGTCGAGTAAACAAATTTTCCTAATCTTTCTGTTCAAGCGCCATCTAC”: 0.381; for “GATGATTGTTCTCCCAGCTGATGAATTTCGGACGTCGAGTAAACAAATTTTCCTAATCTTTCTGTTCAAGCGCCATCTAC”: 0.276; for “GATGATTGTTCTCCCAGCTGATGAATTAACCACATCGAGTAAACAAATTTTCCTAATCTTTCTGTTCAAGCGCCATCTAC”: 0.436.
For “GATGATTGTTCTCCCAGCTGATGAATTATTGAACTCGAGTAAACAAATTTTCCTAATCTTTCTGTTCAAGCGCCATCTAC”, the binding signal (RPM ratio (pull-down/input)) amounted to 0.363.
Regarding “GATGATTGTTCTCCCAGCTGATGAATTTGTCCACTCGAGTAAACAAATTTTCCTAATCTTTCTGTTCAAGCGCCATCTAC”, the binding signal (RPM ratio (pull-down/input)) was determined as 2.44.
For “GATGATTGTTCTCCCAGCTGATGAATTCACGAAGTCGAGTAAACAAATTTTCCTAATCTTTCTGTTCAAGCGCCATCTAC”, the binding signal (RPM ratio (pull-down/input)) came to 0.192.
With “GATGATTGTTCTCCCAGCTGATGAATTTCAGAAGTCGAGTAAACAAATTTTCCTAATCTTTCTGTTCAAGCGCCATCTAC”, the binding signal (RPM ratio (pull-down/input)) amounted to 0.16.
The same measure for “GATGATTGTTCTCCCAGCTGATGAATTCCAACCTTCGAGTAAACAAATTTTCCTAATCTTTCTGTTCAAGCGCCATCTAC”: 0.236.
The same measure for “GATGATTGTTCTCCCAGCTGATGAATTCTGAAGTTCGAGTAAACAAATTTTCCTAATCTTTCTGTTCAAGCGCCATCTAC”: 0.292.
Regarding “GATGATTGTTCTCCCAGCTGATGAATTTAACGGCTCGAGTAAACAAATTTTCCTAATCTTTCTGTTCAAGCGCCATCTAC”, the binding signal (RPM ratio (pull-down/input)) was found to be 0.29.
With “GATGATTGTTCTCCCAGCTGATGAATTTTGATTTTCGAGTAAACAAATTTTCCTAATCTTTCTGTTCAAGCGCCATCTAC” the figure was 1.81.
The same measure for “GATGATTGTTCTCCCAGCTGATGAATTGCTTACTTCGAGTAAACAAATTTTCCTAATCTTTCTGTTCAAGCGCCATCTAC”: 2.35; for “GATGATTGTTCTCCCAGCTGATGAATTCTTAAATTCGAGTAAACAAATTTTCCTAATCTTTCTGTTCAAGCGCCATCTAC”: 0.242; for “GATGATTGTTCTCCCAGCTGATGAATTGTAGTAATCGAGTAAACAAATTTTCCTAATCTTTCTGTTCAAGCGCCATCTAC”: 1.03.
“GATGATTGTTCTCCCAGCTGATGAATTTAGTGTTTCGAGTAAACAAATTTTCCTAATCTTTCTGTTCAAGCGCCATCTAC”: the binding signal (RPM ratio (pull-down/input)) turned out to be 3.04.
With “GATGATTGTTCTCCCAGCTGATGAATTGTATAACTCGAGTAAACAAATTTTCCTAATCTTTCTGTTCAAGCGCCATCTAC” the figure was 0.812.
With “GATGATTGTTCTCCCAGCTGATGAATTGAGATCTTCGAGTAAACAAATTTTCCTAATCTTTCTGTTCAAGCGCCATCTAC” the figure was 0.279; with “GATGATTGTTCTCCCAGCTGATGAATTTAGCACTTCGAGTAAACAAATTTTCCTAATCTTTCTGTTCAAGCGCCATCTAC”, 1.13; with “GATGATTGTTCTCCCAGCTGATGAATTTGGGGGCTCGAGTAAACAAATTTTCCTAATCTTTCTGTTCAAGCGCCATCTAC”, 0.566.
The same measure for “GATGATTGTTCTCCCAGCTGATGAATTTGAAGCCTCGAGTAAACAAATTTTCCTAATCTTTCTGTTCAAGCGCCATCTAC”: 0.46; for “GATGATTGTTCTCCCAGCTGATGAATTTTGCTGATCGAGTAAACAAATTTTCCTAATCTTTCTGTTCAAGCGCCATCTAC”: 3.05; for “GATGATTGTTCTCCCAGCTGATGAATTTGCTAGCTCGAGTAAACAAATTTTCCTAATCTTTCTGTTCAAGCGCCATCTAC”: 2.5.
For the sequence “GATGATTGTTCTCCCAGCTGATGAATTGCAAAGCTCGAGTAAACAAATTTTCCTAATCTTTCTGTTCAAGCGCCATCTAC”, the binding signal (RPM ratio (pull-down/input)) amounted to 0.553.
The same measure for “GATGATTGTTCTCCCAGCTGATGAATTAAAACTTTCGAGTAAACAAATTTTCCTAATCTTTCTGTTCAAGCGCCATCTAC”: 0.401; for “GATGATTGTTCTCCCAGCTGATGAATTTATGAAGTCGAGTAAACAAATTTTCCTAATCTTTCTGTTCAAGCGCCATCTAC”: 0.325; for “GATGATTGTTCTCCCAGCTGATGAATTACTAAAGTCGAGTAAACAAATTTTCCTAATCTTTCTGTTCAAGCGCCATCTAC”: 0.271.
“GATGATTGTTCTCCCAGCTGATGAATTTTTAAAGTCGAGTAAACAAATTTTCCTAATCTTTCTGTTCAAGCGCCATCTAC”: the binding signal (RPM ratio (pull-down/input)) was 0.193.
For “GATGATTGTTCTCCCAGCTGATGAATTACGTTCCTCGAGTAAACAAATTTTCCTAATCTTTCTGTTCAAGCGCCATCTAC”, the binding signal (RPM ratio (pull-down/input)) was 0.631.
With “GATGATTGTTCTCCCAGCTGATGAATTGTTCTAATCGAGTAAACAAATTTTCCTAATCTTTCTGTTCAAGCGCCATCTAC” the figure was 0.47.
With “GATGATTGTTCTCCCAGCTGATGAATTGCTGTACTCGAGTAAACAAATTTTCCTAATCTTTCTGTTCAAGCGCCATCTAC” the figure was 0.736; with “GATGATTGTTCTCCCAGCTGATGAATTGGATGAATCGAGTAAACAAATTTTCCTAATCTTTCTGTTCAAGCGCCATCTAC”, 0.262.
The same measure for “GATGATTGTTCTCCCAGCTGATGAATTTTAGATATCGAGTAAACAAATTTTCCTAATCTTTCTGTTCAAGCGCCATCTAC”: 0.486; for “GATGATTGTTCTCCCAGCTGATGAATTTAAGGCATCGAGTAAACAAATTTTCCTAATCTTTCTGTTCAAGCGCCATCTAC”: 0.732; for “GATGATTGTTCTCCCAGCTGATGAATTACTGACATCGAGTAAACAAATTTTCCTAATCTTTCTGTTCAAGCGCCATCTAC”: 0.506.
In the case of “GATGATTGTTCTCCCAGCTGATGAATTATTCTCGTCGAGTAAACAAATTTTCCTAATCTTTCTGTTCAAGCGCCATCTAC”, the binding signal (RPM ratio (pull-down/input)) is 0.288.

Source of the values: PMC12820563.
